Assay results published in PubChem BioAssay AID485344 (National Center for Advancing Translational Sciences (NCATS), 2010).
Screen size: about 340,000 compounds; about 6,900 (2%) were called active. Rule as the data show it: active = inhibition above about 30%; inactive = below that, where a call was filed. This is a selection; strong and weak results do not stand in their true shares. The source gives no active or inactive call for entries shown without one.

Each compound was assayed against D(2) dopamine receptor (Homo sapiens) (UniProt P14416) (assay: HTS Assay for Allosteric Antagonists of the Human D2 Dopamine Receptor: Primary Screen for Antagonists). Details: HEK293 TREx D2 cells, calcium flux, dopamine EC80; at 10 µM; stronger effect = higher value.
In short: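 Tetracycline-induced HEK293 TREx cells expressing D2 receptor forced-coupled to calcium signalling, loaded with no-wash calcium dye. Compounds added and calcium flux read 180 s, then dopamine added at EC80 and read a further 180 s.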
Also: 0% is about no effect.

Sequence of UniProt P14416 (P14416 whole entry, looked up): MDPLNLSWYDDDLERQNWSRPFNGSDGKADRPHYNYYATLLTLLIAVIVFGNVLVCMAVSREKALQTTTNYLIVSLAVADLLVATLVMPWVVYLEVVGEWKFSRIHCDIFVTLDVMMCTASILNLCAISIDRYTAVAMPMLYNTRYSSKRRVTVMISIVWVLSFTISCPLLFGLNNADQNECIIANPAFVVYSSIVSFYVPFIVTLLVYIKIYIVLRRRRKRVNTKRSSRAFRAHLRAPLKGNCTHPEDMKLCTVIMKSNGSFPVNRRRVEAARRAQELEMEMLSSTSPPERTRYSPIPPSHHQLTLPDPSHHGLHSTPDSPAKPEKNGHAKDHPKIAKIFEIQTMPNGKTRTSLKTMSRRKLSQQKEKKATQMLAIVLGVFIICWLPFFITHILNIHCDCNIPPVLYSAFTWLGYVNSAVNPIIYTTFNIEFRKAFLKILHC

Point of comparison: COc1ccc(C(CNC(=O)COc2cc(C)cc(C)c2)N2CCOCC2)cc1 (stereo not given), inhibition -0.298%. Against it:
- CCOC(=O)Cc1ccc(NC(=O)N2CC(C)Oc3ccc(Cl)cc32)cc1 (stereo not given) — lower, -4.01%
- COc1ccc2c(c1)cc1c(=O)n(CC(=O)NCCc3ccccc3)nc(C)n12 — higher, 24.6%
- COC(=O)c1ccccc1NC(=O)c1ccc2c(Cl)c3c(nc2c1)CCCC3 — higher, 6.86%
- Cc1nc2ccn(Cc3cccs3)c(=O)c2cc1C(=O)N1CCN(c2ccccc2)CC1 — higher, 3.59%
- O=C(Nc1cccc(Br)c1)c1cc(-c2ccc3c(c2)OCCO3)on1 — lower, -0.724%
- COc1cc2[nH]c(=O)n(CCCCCC(=O)N3CCN(c4ccc(Cl)cc4)CC3)c(=O)c2cc1OC — higher, 7.42%
- O=C(CSc1cn(CC(=O)N2CCCC2)c2ccccc12)Nc1ccccc1C(F)(F)F — lower, -4.98%
- Cc1cccc(Cn2c(=O)n(CC3CCC(C(=O)N4CCC(C)CC4)CC3)c(=O)c3sccc32)c1 (stereo not given) — higher, 8.84%
- Cc1nc2cc(-c3ccccc3)nn2c(C)c1CCC(=O)NCc1cccc(Cl)c1 — higher, 26.9%
- CCOCCCNc1nc2cc(OC)c(OC)cc2c2nc(-c3ccccc3)nn12 — higher, 8.04%
- CCOC(=O)c1scc(-c2ccc(C)cc2)c1S(=O)(=O)Nc1ccc(OC)c(Cl)c1 — lower, -15.3%
- Cc1cccc(NS(=O)(=O)c2ccc3nc(-c4ccccc4)[nH]c3c2)c1C — higher, 21.1%
- Cc1ccc(NC(=O)Cn2c(=O)n(CCC(=O)NCc3ccccc3Cl)c(=O)c3ccccc32)c(C)c1 — higher, 1.68%
- Clc1ccccc1Nc1ncnc2c1nc1n2CCCCC1 — higher, 8.5%
- O=C(Nc1ccc2nc(SCCOc3ccccc3)sc2c1)c1ccc2c(c1)OCO2 — lower, -20.4%
- Cc1ccc(-n2cnc3cc(C(=O)NCc4ccccc4Cl)ccc32)c(C)c1 — higher, 17.1%
- Cc1ccc2nc(N3CCN(c4ccccc4F)CC3)c3nnnn3c2c1 — higher, 3.43%
- Cc1nc(-n2nc(C)c(Cc3ccc4c(c3)OCO4)c2C)sc1C(=O)Nc1ccc(Cl)cc1 — lower, -1.74%
- CCCOc1cccc(C2c3c(oc4ccc(F)cc4c3=O)C(=O)N2Cc2ccc3c(c2)OCO3)c1 (stereo not given) — lower, -5.39%
- Cc1cccc(Cn2cccc2CNS(=O)(=O)c2ccc(C)c(C)c2)c1 — higher, 11.2%
- O=C(c1ccco1)n1nc(-c2ccc(Cl)cc2)nc1NCc1ccc(F)cc1 — lower, -7.43%
- CN1CCSc2ccc(C(=O)NCc3ccccc3)cc21 — lower, -7.57%
- CCCCN(Cc1ccco1)C(=O)Cn1ncc2c([nH]c3ccccc32)c1=O — lower, -6.56%
- CCc1ccccc1NC(=O)C1CCCN(c2cnccn2)C1 (stereo not given) — higher, 5.57%
- Cc1ccc(NC(=O)CSc2nc(=O)cc(N)n2CCc2ccccc2)cc1 — higher, 1.73%
- O=C(Nc1cccc(NC(=O)c2ccccc2Cl)c1)c1cccc(Br)c1 — lower, -3.7%
- CC(Sc1oc(-c2cccs2)nc1S(=O)(=O)c1ccccc1)c1ccccc1 (stereo not given) — lower, -3.54%
- Cn1nccc1C(=O)NCc1ccc2c(c1)CCN2C(=O)c1ccc(Cl)cc1 — higher, 14.5%
- Cc1c(C(=O)Nc2ccc(F)cc2F)sc2nc3n(c(=O)c12)N=C(c1ccccc1)CS3 — lower, -3.83%
- CCCCOc1ccc(Cn2c(=O)sc3ccccc32)cc1 — lower, -8.95%
- COc1ccc(N2CCN(c3csc4ccccc4c3=O)CC2)cc1 — lower, -2%
- CCc1ccc(NC(=O)c2nn(-c3ccc(OC)cc3)c(=O)c3c2c2ccccc2n3C)cc1 — lower, -9.8%
- CCc1ccc(Oc2c(C(F)(F)F)oc3c(CN4CCCC(C)C4)c(O)ccc3c2=O)cc1 (stereo not given) — higher, 3.72%
- CC(CNC(=O)CCS(=O)(=O)c1cc2c(cc1Cl)NC(=O)CO2)c1ccccc1 (stereo not given) — higher, 3.38%
- CCOC(=O)c1ccccc1NC(=O)CCc1nc(-c2ccc(C)cc2)no1 — higher, 17.3%
- Cc1ccc(NC(=O)C2CCN(S(=O)(=O)c3cc(-c4noc(C)n4)ccc3C)CC2)c(C)c1 — lower, -24%
- COc1cccc(-n2c(=O)c3sc4ccccc4c3n(CC(=O)Nc3ccccc3C)c2=O)c1 — lower, -0.789%
- CCCN(CCC)CCCNC(=O)c1cc2c(=O)[nH]c3ccccc3c2n1C — higher, 2.45%
- O=C(CSc1c2c(nc3cc(Cl)ccc13)CCCC2)NCc1ccccc1Cl — lower, -15.6%
- COc1ccc(C2N3CC4(C)CN2CC(c2ccccc2)(C3)C4=O)cc1OC (stereo not given) — lower, -9.58%
- COc1ccc(C2CC(=O)c3cc(-c4nc(-c5cccc([N+](=O)[O-])c5)cs4)c(=O)n(-c4ccc(OC)cc4)c3C2)cc1 (stereo not given) — higher, 0.536%
- CSc1ncc(C(=O)N2CCN(c3cccc(C(F)(F)F)c3)CC2)c(C)n1 — lower, -6.24%
- COc1ccccc1OCC(=O)Nc1c(C(=O)c2ccc(F)cc2)oc2ccccc12 — higher, 4.74%
- COc1cccc(OC(=O)CSc2nnc(-c3ccc4c(c3)OCO4)o2)c1 — higher, 8.04%
- CC(C)CCN(C(=O)Nc1ccc(Cl)c(Cl)c1)C(C)c1cccs1 (stereo not given) — lower, -3.48%
- CCOC(=O)c1c(S(=O)(=O)NCC(=O)NCc2ccccc2)c(C)n(C)c1C — higher, 8.28%
- Cc1cccc(-c2nc3c4ccccc4nc(NCc4ccc(F)cc4)n3n2)c1 — higher, -0.0563%
- CCOC(=O)c1ccc(OC(=O)c2cn(-c3cccc(OC)c3)c(=O)c3ccccc23)cc1 — lower, -15%
- CCc1ccc2c(c1)NC(c1ccc(OC)cc1)=NC(c1ccncc1)=N2 — lower, -18.4%
- COc1cc(/C=C/c2nc(C#N)c(N3CCC(C)CC3)o2)cc(OC)c1OC — lower, -4.1%
- CCC1CCCCN1C(=O)c1sc(-n2nc(C)c(Cc3ccccc3)c2C)nc1C (stereo not given) — lower, -10.2%
- Cc1ccc(Cl)cc1NC(=O)CN1C(=O)C(C)(C)c2cc(S(=O)(=O)N3CCCCC3)ccc21 — higher, 12.2%
- CCSc1ncc(Cl)c(C(=O)Nc2sc3c(c2C(=O)NC)CCCC3)n1 — lower, -8.03%
- CC(Oc1ccccc1F)C(=O)Nc1ccc(-c2nc3ccccc3s2)cc1 (stereo not given) — lower, -8.25%
- CCc1cccc(NC(=O)CN(C)S(=O)(=O)c2cccc3cccnc23)c1 — higher, 1.18%
- CC1CCc2c(sc(NC(=O)c3cc4nc(-c5ccc(Cl)cc5)cc(C(F)(F)F)n4n3)c2C#N)C1 (stereo not given) — lower, -4.62%
- CC(=O)c1ccc(N2CCN(C(=O)CCS(=O)(=O)c3ccc4c(c3)oc(=O)n4C)CC2)cc1 — lower, -4.42%
- Nc1c(-c2nc(-c3ccc(F)cc3)cs2)c2ccccn2c1C(=O)c1ccc2c(c1)OCO2 — lower, -6.45%
- COC(=O)CN1C(=O)CSc2ccc(S(=O)(=O)Nc3cccc(Cl)c3C)cc21 — higher, 1.12%
- CCOc1ccc(NS(=O)(=O)c2ccc3[nH]cc(C(=O)NCC4CCCO4)c(=O)c3c2)cc1 (stereo not given) — lower, -15%
- Cc1cc(=O)n(CC(=O)N2CCN(c3ccc(F)cc3)CC2)c2c1c(C)nn2C — higher, 26.2%
- COc1ccc(NCc2cc3ccc(OC)cc3n(CC(=O)Nc3cc(Cl)ccc3C)c2=O)cc1 — lower, -16.1%
- COc1ccccc1NC(=O)C1CCC(CNS(=O)(=O)c2ccc3c(c2)CC(C)N3C(C)=O)CC1 (stereo not given) — higher, 2.27%
- Cc1cc(-n2c(C)nc3ccccc3c2=O)ccc1NC(=O)c1ccc([N+](=O)[O-])cc1 — lower, -27.2%
- O=C(Nc1ccc(S(=O)(=O)N2CCCCCC2)cc1)c1cc(=O)c2ccccc2o1 — higher, 4.18%
- O=C(Cn1c(=O)c2cccn2c2cccnc21)NCc1ccccc1F — lower, -7.71%
- CN1CCN(C(CNC(=O)C(=O)Nc2cccc(Cl)c2)c2ccc3c(c2)OCO3)CC1 (stereo not given) — lower, -15.2%
- O=S(=O)(Nc1ccc(-c2ccc(N3CCCC3)nn2)cc1)c1cc(F)ccc1F — higher, 2.02%
- CC1=C(C(=O)Nc2ccc(C)cc2C)C(c2ccccc2F)n2nc(SCC(=O)c3ccc(C)cc3)nc2N1 (stereo not given) — higher, 18.8%
- CCc1ccc(NC(=O)c2cnc3sc(N4CCCC4)nn3c2=O)cc1 — lower, -5.2%
- Cc1cc2nc(-c3ccc(OCc4ccccc4)cc3)cc(C(F)(F)F)n2n1 — higher, 4.85%
- Cc1ccc2[nH]c(=O)c3cc(C(=O)NCCc4ccc(Cl)cc4)sc3c2c1 — higher, 1.43%
- O=C(c1ccc2c(c1)N(Cc1cccc(Cl)c1)C(=O)c1ccccc1S2)N1CCOCC1 — lower, -8.7%
- c1ccc(OCCn2c(COc3ccccc3)nc3ccccc32)cc1 — lower, -0.818%
- O=C1c2oc3ccccc3c(=O)c2C(c2cccc(Cl)c2)N1c1ccccn1 (stereo not given) — higher, 3.34%
- Cc1ccc(NC(=O)Cn2c(=O)n(Cc3ccc4c(c3)OCO4)c(=O)c3ccc(C(=O)NC4CCCCC4)cc32)c(C)c1 — lower, -9.44%
- CCn1c2ccccc2c2cc(CN3CCN(Cc4ccccc4C)CC3)ccc21 — lower, -2.03%
- COc1ccccc1C(=O)Nc1ccc(OCc2cc(=O)n3cc(C)sc3n2)cc1 — higher, 11.9%
- COc1ccc(C)cc1NC(=O)c1ccc2c(c1)nnn2C1CCCC1 — lower, -5.72%
- CCc1nn(CCCC(=O)NC(C)c2ccccc2)c(=O)c2cc3occc3n12 (stereo not given) — lower, -1.26%
- Cn1c(SCc2ccccc2F)nc2c([nH]c3ccccc32)c1=O — lower, -12.6%
- CCCCNC(=O)C(CC)Sc1nc2ccccc2c(=O)n1CCc1ccc(OC)c(OC)c1 (stereo not given) — lower, -10.9%
- Cc1ccc(Cn2cc(CCC(=O)NCc3ccc(OC(C)C)cc3)c3ccccc32)cc1 — higher, 4.46%

In the case of OCCN1CCN(CC/C=C2/c3ccccc3Sc3ccc(Cl)cc32)CC1, the inhibition was active: 73%.
CN1/C(=C\C(=O)c2cccnc2)C(C)(C)c2ccccc21 was tested, and the inhibition was active: 32.3%.
With C/C(=N\NC(=O)CSCc1ccc([N+](=O)[O-])cc1)c1ccccc1O the inhibition was active: 77%.
Cc1onc(-c2c(Cl)cccc2Cl)c1CO/N=C(\C#N)c1c(Cl)cccc1Cl was tested, and the inhibition was active: 30.1%.
In the case of Clc1ccc(SCCCN2CCCCC2)cc1, the inhibition was active: 38.4%.
In the case of CCOC(=O)c1cc2c(c(CSc3nc4ccccc4c(=O)n3Cc3ccco3)c1)OCOC2, the inhibition was active: 30.7%.
With Cc1ccc(Cl)c(OCCCCN(C)Cc2ccccc2)c1 the inhibition was active: 45.5%.
With O=C(NCc1ccc(Cl)cc1)C1CCCN(C(=O)c2ccc(Cl)cc2)C1 (stereo not given) the inhibition was active: 38.4%.
For CC1CCN(CCCCOc2ccccc2F)CC1, the inhibition was active: 81.5%.
COc1cccc(C2CC(c3cccs3)=NN2C(=O)CSC2=NCCS2)c1OC (stereo not given) was tested, and the inhibition was active: 31.4%.
With C/C=C/C=C\C(=O)Nc1cccc(C2=NOC3(C2)C[C@H](C(N)=O)N(C(=O)CC#N)C3)c1 (stereo not given in full) the inhibition was active: 33.2%.
